Here are results for 153 variants from a collection of fitness landscapes (doi:10.1126/science.1257360).

This is one part of the list.

B1: PhoQ; a variant is named by its letters at X, in order, P23837 (parent)
chain: MKKLLRLFFPLSLRVRFLLATAAVVLVLSLAYGMVALIGYSVSFDKTTFRLLRGESNLFYTLAKWENNKLHVELPENIDKQSPTMTLIYDENGQLLWAQRDVPWLMKMIQPDWLKSNGFHEIEADVNDTSLLLSGDHSIQQQLQEVREDDDDAEMTHSVAVNVYPATSRMPKLTIVVVDTIPVELKSSYMVWSWFIYVLSANLLLVIPLLWVAAWWSLRPIEALAKEVRELEEHNRELLNPATTRELTSLVRNLNRLLKSERERYDKYRTTLTDLTHSLKTPLXXLQXXLRSLRSEKMSVSDAEPVMLEQISRISQQIGYYLHRASMRGGTLLSRELHPVAPLLDNLTSALNKVYQRKGVNISLDISPEISFVGEQNDFVEVMGNVLDNACKYCLEFVEISARQTDEHLYIVVEDDGPGIPLSKREVIFDRGQRVDTLRPGQGVGLAVAREITEQYEGKIVAGESMLGGARMEVIFGRQHSAPKDE

The experiment covers variants of B1. Put plainly: enrichment ratio after two sorts for PhoP signalling (ratio (wild type AVST 3.29)); higher = more functional. The following applies: with PhoP (E. coli).
Regarding PRND, the enrichment ratio was no more than 0.25. On to MGCA, for which the enrichment ratio was no more than 0.25. The value for RSVC was no more than 0.25; that for DTCF was no more than 0.25. Take DWCM: the enrichment ratio is no more than 0.25. The value for WPCI was no more than 0.25; that for LGEI was no more than 0.25; that for YICN was no more than 0.25.

On to TEWP, for which the enrichment ratio is no more than 0.25.

As for ECAG, the enrichment ratio was no more than 0.25.

Regarding HPCL, the enrichment ratio was no more than 0.25. Then AGPI, with no more than 0.25; and EMCT, with no more than 0.25; and IRDM, with no more than 0.25. Then QDYF, with no more than 0.25. Then SAAG, with 14.1. Consider SMQQ, for which the enrichment ratio is no more than 0.25. Then RNGG, with no more than 0.25; and AFYN, with no more than 0.25; and SYCC, with no more than 0.25. Regarding SAQT, the enrichment ratio is no more than 0.25. The value for RCMY was no more than 0.25. On to FYNY, for which the enrichment ratio is no more than 0.25.

For the variant FGAE, the enrichment ratio was no more than 0.25. The value for PTPP was no more than 0.25. With MVGD, the enrichment ratio is no more than 0.25.

Turning to MRYL, the enrichment ratio was no more than 0.25. The value for AFDW was no more than 0.25; that for EVDN was no more than 0.25. The value for EGSG was no more than 0.25. Then FKWA, with no more than 0.25.

Take WAVM: the enrichment ratio is no more than 0.25. The value for TALL was 12; that for FWIG was no more than 0.25. The value for LCKQ was no more than 0.25; that for TPPT was no more than 0.25; that for ELFT was no more than 0.25. Then TGHR, with no more than 0.25; and VGHN, with no more than 0.25.

For the variant KGNR, the enrichment ratio was no more than 0.25.

Consider EISK, for which the enrichment ratio was no more than 0.25. The value for VPAW was no more than 0.25.

With SKTL, the enrichment ratio turned out to be 10.2.

On to DDYI, for which the enrichment ratio is no more than 0.25.

Take QCIM: the enrichment ratio was no more than 0.25. Then FPNN, with no more than 0.25; and MQDW, with no more than 0.25; and WGKI, with no more than 0.25.

For the variant SMST, the enrichment ratio was found to be 13.1. The value for YFAR was no more than 0.25; that for NQAR was no more than 0.25; that for KRLT was no more than 0.25. Then FSSS, with no more than 0.25. As to IFDT, the enrichment ratio was no more than 0.25. The value for WEWI was no more than 0.25. The value for HDSV was no more than 0.25; that for MRIF was no more than 0.25. The value for DTDW was no more than 0.25; that for MGMI was 5.28. Take HKCC: the enrichment ratio was no more than 0.25. Then VVPL, with no more than 0.25. Then PSYQ, with 1.11; and PEHI, with no more than 0.25; and VGWD, with 0.432. Consider ISIK, for which the enrichment ratio was no more than 0.25. Then LTYL, with 0.587.

With ASKI, the enrichment ratio was no more than 0.25. Then DTFH, with no more than 0.25. The value for FAPM was 0.451. The value for DPAY was no more than 0.25; that for MFSG was no more than 0.25; that for YFEW was no more than 0.25. Take ERAH: the enrichment ratio is no more than 0.25. For the variant YFNL, the enrichment ratio was no more than 0.25. Then QNAI, with no more than 0.25; and EFTA, with no more than 0.25. Then SVHM, with no more than 0.25; and FPHS, with no more than 0.25; and VWCF, with no more than 0.25.

Consider KKGN, for which the enrichment ratio is no more than 0.25.

For the variant KGHH, the enrichment ratio was no more than 0.25.

With SSMF, the enrichment ratio amounted to 12.7. The value for RTYE was no more than 0.25; that for VFPA was no more than 0.25; that for EQAC was no more than 0.25.

Take AIRG: the enrichment ratio is no more than 0.25. Then LIVL, with no more than 0.25.

On to FWMY, for which the enrichment ratio is no more than 0.25.

KPRR: the enrichment ratio is no more than 0.25. Take LVMY: the enrichment ratio is no more than 0.25. The value for MFWR was no more than 0.25.

For the variant WKMH, the enrichment ratio was no more than 0.25. Then KYHM, with no more than 0.25. The value for KQSW was no more than 0.25; that for HTVG was no more than 0.25. Then FGPG, with no more than 0.25; and ERAF, with no more than 0.25; and HLVG, with no more than 0.25. In the case of FWWN, the enrichment ratio was no more than 0.25. Then WAFC, with no more than 0.25; and EAHF, with no more than 0.25; and FVCI, with 0.403. The value for DFHF was no more than 0.25. As for AQSN, the enrichment ratio was 8.17. GYSK: the enrichment ratio is no more than 0.25. On to YSRP, for which the enrichment ratio is no more than 0.25. The value for FGCY was no more than 0.25; that for YHNE was no more than 0.25; that for LGPD was no more than 0.25.

Regarding GQTQ, the enrichment ratio was no more than 0.25. Turning to VQWS, the enrichment ratio was no more than 0.25. For FQFW, the enrichment ratio was no more than 0.25.

With VTPE, the enrichment ratio was no more than 0.25. The value for LNVK was no more than 0.25. The value for TQHG was 2.39; that for HAPA was no more than 0.25; that for DKRA was no more than 0.25. On to EELT, for which the enrichment ratio is no more than 0.25. Then TDYE, with no more than 0.25.

QYHQ: the enrichment ratio is no more than 0.25.

In the case of FNIQ, the enrichment ratio was no more than 0.25. The value for YKKS was no more than 0.25; that for ITMM was 17.7. Then DCKL, with no more than 0.25; and NSYQ, with no more than 0.25; and PQTL, with no more than 0.25. Then HSDQ, with no more than 0.25; and MIRI, with no more than 0.25; and GMAD, with no more than 0.25. As for TPVH, the enrichment ratio was no more than 0.25. The value for GQQP was no more than 0.25.

As for GMRL, the enrichment ratio is no more than 0.25. Consider REAV, for which the enrichment ratio was no more than 0.25. Then GTSF, with 4.66. Then YNGG, with no more than 0.25; and FVDP, with no more than 0.25. Then GQYT, with no more than 0.25; and NDKC, with no more than 0.25; and EIPR, with no more than 0.25.

With PCAD, the enrichment ratio is no more than 0.25.

Take GEVC: the enrichment ratio came to 7.47. Turning to IEAS, the enrichment ratio was no more than 0.25. Then ENCN, with no more than 0.25; and GSDY, with no more than 0.25. Then VPGI, with no more than 0.25; and TTFN, with 4.6; and YNCQ, with no more than 0.25.

In the case of EGVD, the enrichment ratio is no more than 0.25.

As to WMAK, the enrichment ratio is no more than 0.25.

In the case of ETHN, the enrichment ratio is no more than 0.25. Then MHTI, with no more than 0.25; and ITWY, with no more than 0.25; and QFEP, with no more than 0.25.
